Assay results: the supplement of paper PMC9446081
Hit rate of the full screen: of about 39,000 compounds, about 220 (0.56%) showed activity. The list shows a part of the results.

Each molecule was assayed on Escherichia coli K-12 BW25113 (assay: relative growth (OD600 normalised to plate interquartile mean) (fraction); higher = less growth inhibition, active = 0.2 or less). Details: 50 µM; LB; incubation time: overnight (16-24 h).
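Also: static incubation at 37 °C against the wild-type strain, values averaged over two biological replicates.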

Row | Structure (SMILES) | relative growth
1 | COc1ccc(Cc2cnc(N)nc2N)cc1OC | active: 0.0502
2 | Cc1ccc(S(=O)(=O)N(C)C[C@H]2Oc3ccc(NS(=O)(=O)c4cccs4)cc3C(=O)N([C@H](C)CO)C[C@H]2C)cc1 | inactive: 1.03
3 | C[C@@H]1CN([C@@H](C)CO)C(=O)c2cc(NC(=O)CCC(F)(F)F)ccc2O[C@@H](C)CCCCO[C@@H]1CN(C)C(=O)Nc1ccc2c(c1)OCO2 | inactive: 0.983
4 | O=C(C[C@@H]1CC[C@H]2[C@@H](COC[C@H](O)CN2C(=O)Nc2ccc(F)cc2)O1)NCCCN1CCOCC1 | inactive: 0.975
5 | C[C@H]1CN([C@@H](C)CO)C(=O)Cc2cc(NS(=O)(=O)c3cn(C)cn3)ccc2O[C@H]1CN(C)S(=O)(=O)c1ccccc1 | inactive: 1.02
6 | C[C@@H]1CCCCO[C@H](CN(C)C(=O)Nc2ccccc2)[C@@H](C)CN([C@H](C)CO)C(=O)c2cc(NC(=O)CCC(F)(F)F)ccc2O1 | inactive: 0.974
7 | O=C(C[C@H]1CC[C@@H]2[C@H](COC[C@@H](O)CN2S(=O)(=O)c2ccccc2)O1)NCCN1CCCC1 | inactive: 0.999
8 | C[C@H]1CN([C@@H](C)CO)C(=O)Cc2cc(NC(=O)CCC(F)(F)F)ccc2O[C@H]1CN(C)S(=O)(=O)c1cn(C)cn1 | inactive: 1
9 | COc1ccc(NC(=O)N(C)C[C@@H]2Oc3ccc(NC(=O)CCCN(C)C)cc3C(=O)N([C@@H](C)CO)C[C@H]2C)cc1 | inactive: 0.986
10 | CC=C(C)C(=O)O[C@H]1[C@H](OC(C)=O)[C@]2(CO)[C@H](O)C[C@]3(C)C(=CC[C@@H]4[C@@]5(C)CC[C@H](O[C@@H]6O[C@H](C(=O)O)[C@@H](O[C@@H]7O[C@H](CO)[C@@H](O)[C@H](O)[C@H]7O)[C@H](O)[C@H]6O[C@@H]6O[C@H](CO)[C@@H](O)[C@H](O)[C@H]6O)[C@](C)(CO)[C@@H]5CC[C@]43C)[C@@H]2CC1(C)C | inactive: 0.783
11 | CCc1nnc(NC(=O)c2nnc[nH]2)s1 | inactive: 1.01
12 | C[C@@H]1CCCCO[C@@H](CN(C)Cc2ccc3c(c2)OCO3)[C@@H](C)CN([C@@H](C)CO)C(=O)c2cc(NS(=O)(=O)c3cccs3)ccc2O1 | inactive: 0.929
13 | O=C(C[C@@H]1C[C@H]2c3cc(NC(=O)Cc4ccncc4)ccc3O[C@H]2[C@H](CO)O1)NCCN1CCCCC1 | inactive: 1.02
14 | O=C(NCCN1CCCC1)[C@@H]1[C@@H](CO)[C@@H]2Cn3c(cccc3=O)[C@H]1N2C(=O)NC1CCCC1 | inactive: 0.936
15 | COc1cccc(NC(=O)N[C@H]2CC[C@H](CC(=O)N3CCN(C)CC3)O[C@@H]2CO)c1 | inactive: 0.994
16 | CCN1[C@H](C(=O)NCCc2cn(C)cn2)[C@@H](CO)[C@@H]2Cn3c(ccc(-c4ccncc4)c3=O)[C@@H]21 | inactive: 0.97
17 | Cc1noc(C)c1NC(=O)N(C)C[C@H]1OCCCC[C@@H](C)Oc2ccc(NC(=O)Nc3ccc(F)cc3)cc2C(=O)N([C@H](C)CO)C[C@@H]1C | inactive: 0.986
18 | C[C@@H]1CN([C@@H](C)CO)S(=O)(=O)c2ccc(Br)cc2O[C@H]1CN(C)CC1CCOCC1 | inactive: 1
19 | CC(=O)N1C(=O)N(C(C)=O)[C@@H](O)[C@H]1O | inactive: 1.01
20 | O=C(CN1CCOCC1)N[C@@H]1CC[C@@H](CCn2cc(C3CC3)nn2)O[C@@H]1CO | inactive: 0.979

Row | Structure (SMILES) | relative growth
21 | C[C@H]1CN([C@@H](C)CO)C(=O)c2cc(C#CCN(C)C)cnc2O[C@@H]1CN(C)C(=O)c1ccc2c(c1)OCO2 | inactive: 0.968
22 | CNC(=O)N1CCC(C(N)=O)CC1 | inactive: 1.01
23 | C[C@@H]1CN([C@@H](C)CO)C(=O)c2cccc(NC(=O)c3ccc(-c4nccs4)cc3)c2O[C@H]1CN(C)C(=O)Nc1ccc(C(F)(F)F)cc1 | inactive: 0.949
24 | CCCNC(=O)N(C)C[C@H]1Oc2cc(-c3ccccc3F)ccc2S(=O)(=O)N([C@H](C)CO)C[C@@H]1C | inactive: 1
25 | Cc1noc(C)c1S(=O)(=O)N(C)C[C@H]1Oc2c(NC(=O)C3CCOCC3)cccc2C(=O)N([C@@H](C)CO)C[C@H]1C | inactive: 0.993
26 | COc1ccc(S(=O)(=O)N(C)C[C@H]2OCc3cnnn3CCCC(=O)N([C@@H](C)CO)C[C@H]2C)cc1 | inactive: 0.996
27 | CO[C@H]1CN(C)C(=O)c2ccc(NS(=O)(=O)CC(F)(F)F)cc2OC[C@H](C)N(C(=O)NC(C)C)C[C@H]1C | inactive: 1.03
28 | C[C@@H]1CN([C@@H](C)CO)C(=O)Cc2cc(NC(=O)CCCCCC(=O)Nc3ccccc3N)ccc2O[C@@H]1CN(C)C(=O)Nc1ccccc1 | inactive: 0.986
29 | CC(C)NC(=O)N(C)C[C@H]1Oc2ccc(NC(=O)CCN3CCOCC3)cc2CC(=O)N([C@@H](C)CO)C[C@@H]1C | inactive: 0.906
30 | Cc1noc(C)c1NC(=O)N(C)C[C@H]1Oc2ncc(C#CCC(C)C)cc2C(=O)N([C@@H](C)CO)C[C@@H]1C | inactive: 0.981
31 | C[C@H](CO)N1C[C@H](C)[C@@H](CN(C)Cc2ccncc2)OCCCC[C@H](C)Oc2ccc(NS(=O)(=O)c3ccc(Cl)cc3)cc2C1=O | inactive: 0.999
32 | C[C@H]1CCCCO[C@@H](CN(C)Cc2ccccc2)[C@@H](C)CN([C@@H](C)CO)C(=O)c2cc(NC(=O)CCC(F)(F)F)ccc2O1 | inactive: 0.999
33 | Cc1ccc(S(=O)(=O)Nc2ccc3c(c2)C(=O)N([C@H](C)CO)C[C@@H](C)[C@@H](CN(C)S(=O)(=O)c2ccccc2)O3)cc1 | inactive: 1.03
34 | C=C/C=C/[C@H]1C(=C)CN([C@H](Cc2ccc(-n3cc(CCC(=O)NO)nn3)cc2)C(=O)OC)[C@@H]1[C@H](O)Cc1ccccc1 | inactive: 1
35 | COc1oc(C(=O)NC2CCCCC2)c(-c2ccc(Cl)cc2)c1S(=O)(=O)c1ccc(Br)cc1 | inactive: 1.02
36 | COC(=O)CCCCCCC(=O)Nc1ccc([C@H]2O[C@@H](CSc3nc4ccccc4s3)C[C@H](c3ccccc3)O2)cc1 | inactive: 1.01
37 | COc1ccc(S(=O)(=O)N(C)C[C@H]2Oc3ccc(NS(=O)(=O)c4ccc(C)cc4)cc3CC(=O)N([C@@H](C)CO)C[C@H]2C)cc1 | inactive: 1
38 | C[C@H](CO)N1C[C@H](C)[C@H](CN(C)CC2CC2)Oc2ccc(NS(=O)(=O)c3cccs3)cc2C1=O | inactive: 0.975
39 | C[C@H]1CCCCO[C@H](CN(C)Cc2ccc(Cl)c(Cl)c2)[C@@H](C)CN([C@@H](C)CO)C(=O)c2cc(NC(=O)c3ccccc3)ccc2O1 | inactive: 0.997
40 | Cc1ccc(S(=O)(=O)N(C)C[C@@H]2OCCCC[C@H](C)Oc3ccc(NC(=O)Nc4cccc5ccccc45)cc3C(=O)N([C@H](C)CO)C[C@H]2C)cc1 | inactive: 1.01

Row | Structure (SMILES) | relative growth
41 | C[C@H]1CN([C@@H](C)CO)C(=O)c2cc(NC(=O)C3CCCCC3)ccc2O[C@@H]1CN(C)Cc1ccc(Cl)c(Cl)c1 | inactive: 0.993
42 | Cc1ccc(S(=O)(=O)Nc2ccc3c(c2)C(=O)N([C@@H](C)CO)C[C@@H](C)[C@H](CN(C)C(=O)Nc2cccc4ccccc24)OCCCC[C@@H](C)O3)cc1 | inactive: 1.02
43 | C[C@H](CO)N1C[C@H](C)[C@@H](CN(C)Cc2ccc3c(c2)OCO3)Oc2c(NS(=O)(=O)c3cn(C)cn3)cccc2C1=O | inactive: 0.974
44 | CN(C)CC(=O)N[C@@H]1CC[C@@H](CCNC(=O)C2CC2)O[C@H]1CO | inactive: 1.03
45 | C[C@@H]1CN([C@H](C)CO)C(=O)CCCn2cc(nn2)CO[C@@H]1CN(C)S(C)(=O)=O | inactive: 1.02
46 | COc1ccc(S(=O)(=O)N(C)C[C@@H]2Oc3ccc(NC(=O)CCN4CCOCC4)cc3CC(=O)N([C@@H](C)CO)C[C@@H]2C)cc1 | inactive: 1.03
47 | C[C@H](CO)N1C[C@H](C)[C@@H](CN(C)C(=O)Nc2ccc(F)cc2)Oc2c(NC(=O)Nc3ccc(C(F)(F)F)cc3)cccc2C1=O | inactive: 0.958
48 | C[C@@H]1CN([C@H](C)CO)C(=O)c2cc(NC(=O)C3CC3)ccc2O[C@H]1CN(C)S(=O)(=O)c1ccc(F)cc1 | inactive: 0.971
49 | CN(C)CCCN1c2ccccc2CCc2ccccc21.Cl | inactive: 0.907
50 | COCC#Cc1ccc2c(c1)O[C@H](CN(C)S(=O)(=O)c1ccc(C)cc1)[C@@H](C)CN([C@H](C)CO)S2(=O)=O | inactive: 0.993
51 | O=C(C[C@@H]1C=C[C@@H](NC(=O)Nc2ccc3c(c2)OCO3)[C@@H](CO)O1)NCCCN1CCOCC1 | inactive: 1.01
52 | C[C@@H]1CCCCO[C@@H](CN(C)C(=O)c2ccccc2)[C@H](C)CN([C@@H](C)CO)C(=O)c2cc(NC(=O)Cc3ccccc3)ccc2O1 | inactive: 1.01
53 | COc1cccc(S(=O)(=O)N(C)C[C@H]2Oc3cc(C#CCC(C)C)ccc3S(=O)(=O)N([C@@H](C)CO)C[C@@H]2C)c1 | inactive: 0.983
54 | CC(C)NC(=O)Nc1ccc2c(c1)C(=O)N([C@H](C)CO)C[C@H](C)[C@H](CN(C)C(=O)C1CCCCC1)OCCCC[C@H](C)O2 | inactive: 0.991
55 | NCc1cn(Cc2ccc(Cl)c(Cl)c2)cn1 | inactive: 0.998
56 | C[C@H]1CN([C@@H](C)CO)C(=O)c2cc(-c3ccc(C#N)cc3)cnc2O[C@@H]1CN(C)C(=O)Nc1ccc(C(F)(F)F)cc1 | inactive: 1.01
57 | C[C@H]1CN([C@@H](C)CO)C(=O)c2cc(NS(C)(=O)=O)ccc2O[C@H]1CN(C)C(=O)Nc1ccc2c(c1)OCO2 | inactive: 0.994
58 | C[C@H]1CN([C@@H](C)CO)C(=O)Cc2cc(NS(C)(=O)=O)ccc2O[C@H]1CN(C)C | inactive: 0.996
